# Laboratory results taken from ChEMBL document CHEMBL4888484, “Replenishing the malaria drug discovery pipeline: Screening and hit evaluation of the MMV Hit Generation Library 1 (HGL1) against asexual blood stage Plasmodium falciparum ,using a nano luciferase reporter read-out” (2022).
# Among all 150,000 compounds or so, about 540 (0.36%) showed an effect of 50% or more. The list shows a part of the results.
# Test system: Plasmodium falciparum
# Test: Primary screen in NF54 nanoGlo assay, in single point, at 2uM, 72h; a lower Z score goes with more inhibition
# Assay type: functional, Erythrocyte
# Conditions: timepoint 72 hour
Compound,% Inhibition [%],Z score
O=C(NCC1CCCO1)C1COC2(CCN(C(=O)c3cccc(Cl)c3)CC2)N1C(=O)c1ccco1 (centres undefined),-9,1.52
CCn1c(=O)cc(C(C)C)c2ccc(OCC(=O)Nc3ccccc3F)cc21,-4,0.49
Cc1ccc2c(c1)N(C(=O)C(=O)NC[C@H]1CCC(=O)N1)CC2,-9,0.76
CC(C)(C)n1cnc(C(=O)N2Cc3ccc(Cl)cc3C2)n1,2,-0.31
O=C(O)C1(n2cccn2)CCN(Cc2ccc3[nH]ccc3c2)CC1,-21,1.81
CCC(=O)N1CCC[C@@](NCCc2ccccc2)(c2nnnn2C2CCCC2)C1,-14,1.9
Cc1cnccc1CCNC(=O)N1CCOC[C@@H](C2CCC2)C1,-5,0.79
CCS(=O)(=O)c1cc(Cl)cc(CNC(=O)[C@@H]2CCCCO2)c1,-12,1.48
CCN1CCCC1CNS(=O)(=O)C(C)COC (centres undefined),-4,0.45
Cc1ccccc1CNS(=O)(=O)c1ccc(-c2nnc(C3CCC3)o2)s1,-2,0.37
Cc1cc(CN2CC[C@H](N(C)C)C2)c2ccc(C)c(C)c2n1,12,-1.56
OCC#Cc1ccc(-c2c(-c3ccccc3)ncn2Cc2cccnc2)s1,3,-0.64
CC1(CCNC(=O)NCC2(c3ccc(F)cc3F)CC2)OCCO1,-14,2.65
COCC[C@]1(c2noc(-c3ccc(F)cc3)n2)CCCN(S(=O)(=O)c2cccnc2)C1,-8,1.3
COc1ccc(-c2nc3cc(C)ccc3cc2CN2CCN3CCC[C@H]3C2)cc1,-11,1.93
Cc1ccc([C@@H]2CCCN2CC(=O)Nc2c(C)n[nH]c2C)s1,-12,1.68
CC(C)[C@H](NC(=O)NCc1ccccc1)C(=O)N1CCC(O)CC1,-8,1.1
O=C(c1n[nH]c2ccc(Cl)cc12)N1CCC(OC2CCC2)CC1,-11,1.74
O=C1c2cccc3cccc(c23)C(=O)N1c1ccc2c(c1)oc1ccccc12,-7,0.88
Cc1cc(N2CCC[C@@H]2CCc2ccccn2)nc(C)n1,-14,1.89
CN(C/C=C/c1ccccc1)Cc1ccc(C(=O)N(C)C)o1,-10,1.39
N#Cc1ccccc1CN1CC[C@@]2(CCCN(Cc3ccc(F)c(F)c3)C2=O)C1,-12,1.51
Cc1ccc(C(=O)c2nocc2C(=O)c2cccnc2)cc1,1,-0.19
COc1ccc(C(=O)N[C@@H]2CCCC[C@H]2NC(=O)C2CCCN(C(=O)c3cccc(F)c3)C2)cc1 (some centres undefined),-6,0.59
CCCN(CC(=O)N(C)C1CC1)CC(F)(F)F,-13,1.97
COc1cccc(OC)c1CC(=O)Nc1ccccc1-c1ncc[nH]1,6,-0.79

Compound,% Inhibition [%],Z score
CNS(=O)(=O)N1CCC(C(=O)NC[C@H](c2cccnc2)C(C)C)CC1,-11,1.27
CN(c1nccs1)S(=O)(=O)c1cccs1,-9,1.65
Cc1ccc(OCCN(C)C(=O)NC[C@H]2CCCOC2)c(C)c1,-3,0.54
O=C(c1ncoc1C1CC1)N1CCc2sccc2C1,4,-0.61
CC(C)OCC(=O)N1CCC[C@@]2(CCC(=O)N(Cc3cccnc3)C2)C1,-7,0.86
CCc1cc(C)c(C(=O)NC[C@H]2CCC[C@@H](CO)C2)o1,-19,2.23
C[C@@H]1[C@H](N(C)CCO)CCN1C(=O)Nc1ccc(C(C)(C)C)nc1,-7,0.98
Cc1cc(NC(=O)C2CC2c2ccccc2)no1 (centres undefined),-2,0.24
C[C@H]1CCC[C@@H](NCCc2ccccc2)CCC/C=C/c2cc(O)cc(O)c2C(=O)O1,73,-6.47
Cc1cccc(O[C@H]2CCN(C(=O)CC(F)(F)F)C2)n1,-10,1.97
COCCN1C(=O)[C@@H]2C(Cc3ccc(O)cc3)NC3(C(=O)Nc4c(C)cc(C)cc43)[C@@H]2C1=O (some centres undefined),-3,0.41
CN(CCN[C@H](c1ccccc1)c1c[nH]cn1)C(=O)OC(C)(C)C,19,-2.38
CNc1nc(NCCCOCC2CC2)nc(NCCCOCC2CC2)n1,0,0.01
Cc1c[nH]c(CN(C)CCC(=O)Nc2nccs2)n1,-8,1
CCc1nc([C@@H](O)CC(C)C)n(-c2ccncc2)n1,-7,1.34
CCN1CCN(C(=O)c2cnc(-c3ccc(OC)cc3)nc2Oc2ccc(OC)cc2)CC1,-10,1.11
COc1cccc(CN(Cc2nc(C(=O)NCc3ccco3)co2)[C@@H](C)C(C)C)c1,3,-0.43
COc1ccc2nc(C3CC3)cc(C(=O)Nc3c(C)n(C)n(-c4ccccc4)c3=O)c2c1,8,-0.95
CC(C)n1ccnc1CNc1ccc(C(=O)NC2CCOCC2)cc1,9,-1.31
Cc1ccc(C(=O)N2CCS(=O)(=O)C[C@H]2C2CCC2)c(Cl)c1,-3,0.48
COc1ccc(CNC(=O)c2cnn(-c3nccc(-c4cccs4)n3)c2C)cc1,-3,0.48
O=S(=O)(c1ccc(F)cc1)N1CCN(Cc2csnn2)CC1,-7,0.6
C=CCCO[C@@H](C)C(=O)N1CCC(=O)NCCN(c2nccn3nnnc23)CC1,-12,2.26
c1ccc2c(c1)Cc1cc3ccccc3nc1-2,-3,0.53
Cc1cc(C)c2c(C)c(C(=O)Nc3ccc(S(=O)(=O)Nc4nccc(C)n4)cc3)oc2c1,-14,1.81
CCc1ccc2c(c1)c(-c1ccc(Cl)cc1)c(C(=O)NCc1ccc(OC)cc1)n2C,7,-0.88
